Target: T1, human holo-transferrin (human)
T1 construct: also called holo-Tf; Tf
Assay: blocking ELISA: biotinylated huTfR binding to immobilized HFE

binding result: binds
B1: human TfR extracellular domain with N-terminal His tag (receptor, not shown: small tags and cut ends)
chain: not shown
notes: Biotinylated in some assays; also called huTfR; HuTfR

— US20180057604A1 (Genentech, published 2018)
